Reference: publication PMC4336329 (PLoS ONE, 2015)
The whole screen tested about 310,000 compounds, of which about 2,200 (0.71%) showed an effect of 50% or more. The effect is printed as a negative number. The list shows a part of the results.

Target: human ether-à-go-go-related gene (hERG) potassium channel (human, UniProt Q12809)
Test: primary screen, population patch clamp on CHO cells stably expressing hERG

Sequence of human ether-à-go-go-related gene (hERG) potassium channel (Q12809 whole entry, looked up): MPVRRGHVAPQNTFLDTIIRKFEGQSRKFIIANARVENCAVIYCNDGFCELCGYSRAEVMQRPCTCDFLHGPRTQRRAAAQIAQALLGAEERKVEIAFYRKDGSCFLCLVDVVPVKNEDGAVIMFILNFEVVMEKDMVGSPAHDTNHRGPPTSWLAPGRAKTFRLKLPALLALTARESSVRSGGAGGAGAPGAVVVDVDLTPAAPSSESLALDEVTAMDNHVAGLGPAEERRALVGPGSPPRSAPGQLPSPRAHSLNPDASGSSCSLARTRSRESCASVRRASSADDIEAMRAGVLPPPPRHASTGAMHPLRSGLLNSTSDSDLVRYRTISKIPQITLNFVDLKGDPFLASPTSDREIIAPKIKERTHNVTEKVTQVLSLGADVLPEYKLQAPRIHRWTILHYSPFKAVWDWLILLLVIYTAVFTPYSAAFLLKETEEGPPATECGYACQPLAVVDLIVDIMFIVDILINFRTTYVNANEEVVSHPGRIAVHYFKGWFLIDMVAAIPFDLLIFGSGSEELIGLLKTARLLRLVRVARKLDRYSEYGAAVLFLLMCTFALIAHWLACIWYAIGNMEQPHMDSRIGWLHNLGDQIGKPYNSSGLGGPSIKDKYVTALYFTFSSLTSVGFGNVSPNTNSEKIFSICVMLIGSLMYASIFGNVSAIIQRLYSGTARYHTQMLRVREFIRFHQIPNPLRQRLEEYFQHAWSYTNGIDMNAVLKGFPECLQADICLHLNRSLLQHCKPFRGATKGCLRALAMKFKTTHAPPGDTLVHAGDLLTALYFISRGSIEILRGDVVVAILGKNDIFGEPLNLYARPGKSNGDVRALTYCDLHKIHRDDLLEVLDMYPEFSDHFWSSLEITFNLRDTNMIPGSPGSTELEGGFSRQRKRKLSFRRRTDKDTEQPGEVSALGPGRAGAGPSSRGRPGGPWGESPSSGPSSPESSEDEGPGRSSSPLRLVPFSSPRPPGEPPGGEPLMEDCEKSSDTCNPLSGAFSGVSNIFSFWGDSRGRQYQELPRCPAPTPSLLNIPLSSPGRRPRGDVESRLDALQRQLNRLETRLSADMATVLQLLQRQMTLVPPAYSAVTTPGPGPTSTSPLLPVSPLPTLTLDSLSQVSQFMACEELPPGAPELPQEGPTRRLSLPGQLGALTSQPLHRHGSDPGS

Row | Compound | hERG current change (%, negative = inhibition) at 1uM [%]
1 | CCOc1cc(/C=C2/C(=N)N3N=C(CC)SC3=NC2=O)ccc1OC(=O)c1ccco1 | 23.7
2 | C1CN(c2nc3nonc3nc2N2C[C@H]3CC[C@H]2C3)CCS1 | 8.41
3 | CC(C)n1cc(CN2CCCC(C(=O)Nc3ccccc3Oc3cccnc3)C2)cn1 (centres unmarked) | -19.5
4 | COC(=O)[C@H](CCSC)NC(=O)NC1CCN(Cc2ccccc2)CC1 | -14.6
5 | COc1ccccc1NC(=O)CN1C(=O)C(C)SC(C)C1=O (centres unmarked) | 14
6 | CCC(C(=O)N1CCN(c2ccccc2OC)CC1)c1ccccc1 (centres unmarked) | 14.8
7 | CCOc1ccc(OCC(=O)NCCc2nc3ccccc3[nH]2)cc1 | 3.28
8 | COc1ccc(C2c3ccc4ccccc4c3Oc3ncn(CCN4CCOCC4)c(=N)c32)cc1 (centres unmarked) | -42.6
9 | COc1ccc(CNC(=O)CN(c2ccc(OC)cc2)S(=O)(=O)c2c(C)[nH]c(=O)[nH]c2=O)cc1 | 16.2
10 | Nc1ccc(C2(c3ccc(N)cc3)C(=O)Nc3ccccc32)cc1 | 3.74
11 | O=C(Nc1ccccc1N1CCCC1)c1cccnc1Cl | 6.63
12 | CCOC(=O)N1CCN(C(=O)CSc2ccc(Cl)cc2)CC1 | -3.42
13 | Cc1c(C(=O)Nc2ccccc2)sc2ncn(CC(=O)N3CCCCC3)c(=O)c12 | 1.29
14 | COc1ccccc1CNC(=O)c1ccc(NS(C)(=O)=O)cc1 | 8.04
15 | C=CCOc1ccccc1CNc1ccc2[nH]c(=O)[nH]c2c1 | 12.6
16 | Cc1cc(/C=C2/SC(=O)N(CC(=O)N3CCOCC3)C2=O)c(C)n1-c1ccccc1F | 5.92
17 | CCOC(=O)C1=C(CNC2CCCCC2)NC(=O)NC1c1cc(C)ccc1C (centres unmarked) | 11.8
18 | COc1ccccc1NC(=O)Cn1nc(C)n2cccc2c1=O | 10.1
19 | CCc1ccc(C2c3[nH]c4ccccc4c3CCN2C(=O)CNC(N)=O)cc1 (centres unmarked) | 4.14

Row | Compound | hERG current change (%, negative = inhibition) at 1uM [%]
20 | CCOc1cc(-c2nc(-c3ccc(C)nc3OCC)no2)cc(OCC)c1OCC | 15.6
21 | CCN(CC)C(=O)CSc1nnc(-c2ccncc2)n1N | 18.2
22 | CSc1ncccc1C(=O)OCC(=O)NC1CCCC1 | 9.09
23 | Cc1cc(C)cc(NC(=O)N2CCCN(c3c(Cl)cncc3Cl)CC2)c1 | 6.97
24 | O=C(CCC1CCN(Cc2ccccc2O)CC1)NC1CC1 | 7.58
25 | COc1ccc(NS(=O)(=O)c2cccc(C(=O)NCC(c3ccco3)N3CCCCC3)c2)cc1 (centres unmarked) | 6.24
26 | Cc1ccc(NS(=O)(=O)c2cccs2)c(C)c1 | 7.06
27 | Cc1cc2ccccc2n2c(SCC(=O)Nc3ccc(S(=O)(=O)N4CCC(C)CC4)cc3)nnc12 | 20.2
28 | Cc1ccc(S(=O)(=O)NCCSCc2ccccc2)cc1 | 7.87
29 | O=C(Nc1cccnc1Cl)C1c2ccccc2Oc2ccccc21 | 2.26
30 | Cc1cnc(C(=O)OCC(=O)NCc2cccc(Cl)c2)cn1 | 5.46
31 | O=C(NC1CCCCC1)c1cc(C2CC2)on1 | 14
32 | Cc1cc(C)c(NC(=O)c2oc3ccccc3c2COc2ccccc2)c(C)c1 | 2.85
33 | N/C(=N\O)c1ccccc1-n1cccc1 | 11.2
34 | O=c1[nH]c([N+](=O)[O-])nn1C(c1ccccc1)c1ccccc1 | 4.19
35 | Cc1n[nH]c(=O)nc1N/N=C/c1ccc(O)c([N+](=O)[O-])c1 | -6.33
36 | CCN(CC)CCNC(=O)/C(=C/c1cn(C)c2ccccc12)NC(=O)c1ccc(OC)c(OC)c1 | 13.2
37 | CC(C)(CC(=O)O)CC(=O)Nc1ccc(Cl)c(Cl)c1 | 12.7
38 | CCOC(=O)N1CCN(C(=O)C2CCN(S(=O)(=O)c3ccc(OC)cc3)CC2)CC1 | 3.66

Row | Compound | hERG current change (%, negative = inhibition) at 1uM [%]
39 | CC(C)(C)c1nnc(NC(=O)c2cccs2)s1 | 11
40 | C/C(=C/c1oc2ccc(O)cc2c1[N+](=O)[O-])N(C)C | 6.22
41 | CCOC(=O)c1oc2ccccc2c1NC(=O)c1ccc(S(=O)(=O)N2CCCC2)cc1 | -6.45
42 | CC(NC(=O)c1ccc(F)cc1)c1ccc2c(c1)CCCC2 (centres unmarked) | 12.8
43 | CCn1c(CCC(=O)N(C)CC(=O)Nc2cccc(F)c2)nc2cc(S(=O)(=O)N(C)C)ccc21 | 13.7
44 | COc1ccccc1CN1CC(C(=O)NCCC2=CCCCC2)CCC1=O (centres unmarked) | 6.11
45 | CC1(C)Cc2nc(Cl)c(C(N)=O)cc2CO1 | 17.2
46 | O=C(O)COc1ccc(/C=C/C(=O)c2ccc(C3CCCCC3)cc2)cc1 | 8.08
47 | CN1CCc2c(sc(NC(=O)c3ccc([N+](=O)[O-])o3)c2C(N)=O)C1.Cl | 4.48
48 | CC1(C)[C@@H](O)CC[C@]2(C)C3C(O)C=C4[C@H]5C[C@@](C)(CO)CC[C@]5(C)CC[C@]4(C)[C@]3(C)CC[C@@H]12 (some centres unmarked) | 15.4
49 | N#C/C(=C\c1ccc(-c2ccc(C(=O)O)cc2)o1)C(=O)Nc1ccc(F)cc1 | 12.6
50 | COc1ccc(CNC(=O)C2(CC(=O)NC(C)(C)C)CCCC2)cc1 | 5.32
51 | COc1cc(CC(=O)OCC(=O)Nc2ccc(Cl)c(S(=O)(=O)N(C)C)c2)cc(OC)c1OC | 1.18
52 | Cc1ccc(C(=O)c2c[nH]c(C(=O)NCCCN3CCOCC3)c2)cc1 | 1.28
53 | CCc1ccc(CN(C)CCc2ccccn2)cc1 | -34.7
54 | COC(=O)C1=C(c2ccc(C(C)=O)cc2)C[C@@H]2CC[C@H]1N2C(=O)NCC1CC1 | 9.4
55 | O=C(O)c1ccc(CNc2ccccc2C(=O)O)cc1 | 11.2
56 | O=C(Nc1ccccc1[N+](=O)[O-])c1nc[nH]c1C(=O)NCCO | 7.16
